Results: the antibiotic and cytotoxicity screens of Wong et al. (2023)
The other results are listed elsewhere or left out.

tested on: HepG2; test: cytotoxicity call (relative viability < 0.9); details: 10 µM

Row | Compound | cytotoxicity call
1 | Cc1noc(C)c1S(=O)(=O)Nc1ccc2c(c1)C(=O)N([C@@H](C)CO)C[C@@H](C)[C@H](CN(C)C(=O)Nc1ccc3c(c1)OCO3)O2 | inactive
2 | Cc1ccc(S(=O)(=O)Nc2ccc3c(c2)C(=O)N([C@H](C)CO)C[C@@H](C)[C@@H](CN(C)C(=O)Nc2cccc4ccccc24)O3)cc1 | inactive
3 | O=C(N[C@H]1CC[C@@H](CC(=O)N2CCOCC2)O[C@H]1CO)c1ccccn1 | inactive
4 | C[C@H](CO)N1C[C@H](C)[C@@H](CN(C)Cc2ccc(-c3ccccc3)cc2)Oc2ccc(NC(=O)Nc3ccc4c(c3)OCO4)cc2C1=O | inactive
5 | C[C@@H]1CN([C@H](C)CO)C(=O)c2cc(NC(=O)Cc3ccccc3)ccc2O[C@@H](C)CCCCO[C@@H]1CN(C)Cc1ccccc1 | inactive
6 | C[C@H]1CCCCO[C@H](CN(C)Cc2ccc3c(c2)OCO3)[C@@H](C)CN([C@@H](C)CO)C(=O)c2cc(NC(=O)NC3CCCCC3)ccc2O1 | inactive
7 | C[C@@H]1CCCCO[C@@H](CN(C)Cc2ccc3c(c2)OCO3)[C@@H](C)CN([C@@H](C)CO)C(=O)c2cc(NC(=O)c3ccccc3)ccc2O1 | inactive
8 | C[C@@H]1CN([C@H](C)CO)C(=O)c2cccc(NS(=O)(=O)c3cccs3)c2O[C@@H]1CN(C)Cc1ccc(-c2ccccc2)cc1 | inactive
9 | O=C(C[C@@H]1CC[C@H]2[C@@H](COC[C@@H](O)CN2S(=O)(=O)c2ccccc2)O1)N[C@H]1CCN(Cc2ccccc2)C1 | inactive
10 | C[C@H]1CN([C@@H](C)CO)C(=O)c2cc(NS(=O)(=O)c3cn(C)cn3)ccc2O[C@H]1CN(C)Cc1ccncc1 | inactive
11 | COC(=O)[C@@H](Cc1ccc(-n2cc(C(=O)NO)nn2)cc1)N1CC2=CC(=O)[C@@H](C3CC3)[C@@H]2[C@H]1[C@H](O)Cc1ccccc1 | inactive
12 | C[C@@H]1CN([C@H](C)CO)C(=O)c2cc(NS(=O)(=O)c3ccc(Cl)cc3)ccc2O[C@@H]1CN(C)Cc1ccc(Oc2ccccc2)cc1 | active
13 | C=c1cc(C)ccc1=C1NN=C(NC(C)=O)O1 | inactive
14 | CC(C)NC(=O)Nc1ccc2c(c1)C(=O)N([C@@H](C)CO)C[C@@H](C)[C@@H](CN(C)Cc1ccc(Oc3ccccc3)cc1)O2 | inactive
15 | C[C@@H]1O[C@H](O[C@@H]2[C@H](O)C[C@@]3(C)[C@@H](CC[C@]4(C)[C@H]3CC=C3[C@H]5CC(C)(C)CC[C@@]5(C(=O)O[C@H]5O[C@@H](C)[C@@H](O)[C@H](O[C@H]6OC[C@@H](O)[C@@H](O)[C@@H]6O)[C@H]5O[C@@H]5O[C@H](C)[C@H](O)[C@H](O[C@@H]6OC[C@H](O)[C@H](O[C@@H]7O[C@H](C)[C@@H](O)[C@H](O)[C@@H]7O)[C@H]6O)[C@H]5O)[C@@H](O)C[C@@]34C)[C@]2(C)CO)[C@@H](O)[C@H](O[C@H]2OC[C@@H](O)[C@@H](O[C@H]3OC[C@@H](O[C@H]4OC[C@@](O)(CO)[C@@H]4O)[C@@H](O)[C@@H]3O)[C@@H]2O)[C@@H]1O | inactive
16 | COc1ccc2c3c(n(c2c1)C)[C@H](CO)N(C[C@]13CCN(CC1)Cc1cccc(c1)F)C(=O)Nc1ccc(cc1)F | active
17 | COc1ccccc1-c1ccc2c(c1)O[C@H](CN(C)CC1CCOCC1)[C@@H](C)CN([C@H](C)CO)S2(=O)=O | inactive
18 | C[C@@H]1CN([C@H](C)CO)C(=O)c2cc(NC(=O)c3ccncc3)ccc2O[C@@H](C)CCCCO[C@H]1CN(C)Cc1ccc(C(F)(F)F)cc1 | inactive
19 | O=C(C[C@H]1CC[C@H](NC(=O)CN2CCOCC2)[C@@H](CO)O1)NC1CCC1 | inactive
20 | COc1ccc([C@@H]2C/C=C\C[C@@H](c3cccc(Cl)c3)NC(=O)[C@@H](c3ccccc3)CC(=O)N2)c(OC)c1 | inactive
21 | C[C@@H]1CN([C@H](C)CO)C(=O)c2cc(NC(=O)Nc3ccc(C(F)(F)F)cc3)ccc2O[C@@H]1CN(C)CC1CCCCC1 | active
22 | COc1ccc(CN(C)C[C@@H]2OCCCC[C@H](C)Oc3ccc(NC(=O)NC4CCCCC4)cc3C(=O)N([C@H](C)CO)C[C@H]2C)cc1 | inactive
23 | COc1ccc2c3c([nH]c2c1)[C@H](CO)N(C[C@]13CN(C1)S(=O)(=O)c1ccccc1)C(=O)c1cnccn1 | inactive
24 | C[C@H]1CN([C@@H](C)CO)C(=O)c2cccc(NC(=O)CCCCCC(=O)Nc3ccccc3N)c2O[C@@H]1CN(C)CC1CCCCC1 | active
25 | C[C@@H]1CN([C@H](C)CO)C(=O)Cc2cc(NC(=O)Nc3ccc(C(F)(F)F)cc3)ccc2O[C@H]1CN(C)Cc1ccc(-c2ccccc2)cc1 | active
26 | Cc1ccc(S(=O)(=O)N(C)C[C@H]2Oc3c(NC(=O)Nc4cccc5ccccc45)cccc3C(=O)N([C@H](C)CO)C[C@@H]2C)cc1 | inactive
27 | Cl.NC1C(O)OC(CO)C(O)C1O (centres undefined) | inactive
28 | C[C@H](CO)N1C[C@H](C)[C@@H](CN(C)C(=O)Nc2ccccc2)OCCCC[C@H](C)Oc2ccc(NC(=O)Nc3ccc(F)cc3)cc2C1=O | inactive
29 | CCS(=O)(=O)Nc1ccc2c(c1)C(=O)N(C)[C@@H]1CC[C@H](CC(=O)NCc3ccccc3F)O[C@@H]1CO2 | inactive
